Substitutions are numbered along the chain they refer to. Numbers in names are those of the source.
T1: human IL-4 (human, UniProt P05112 25-153)
T1 sequence (looked up): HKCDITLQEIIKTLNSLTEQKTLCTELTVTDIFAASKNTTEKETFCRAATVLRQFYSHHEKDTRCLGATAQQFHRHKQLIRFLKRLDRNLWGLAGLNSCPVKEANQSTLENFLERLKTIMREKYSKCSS

B1: IL-4/13 fusion polypeptide variant 2601 (Fc fusion)
chain: GNMKVLQEPTCVSDYMSISTCEWKMNGPTNCSTELRLLYQLVFQSSEAHTCIPENNGGAGCVCHLLMDDVVSADNYTLDLWAGQQLLWKGSFKPSEHVKPRAPGNLTVHTNVSDTLLLTWSNPYPPDNFLYNHLTYAVNIWSENDPADFRIYNVTYLEPSLRIAASTLKSGISYRARVRAWAQSYNTTWSEWSPSTKWHNSYREPFEQAPTETQPPVTNLSVSVENLATVIWTWNPPEGASSNCSLWYFSHFGDKQDKKIAPETRRSIEVPLNERICLQVGSQCSTNESEKPSILVEKCISPPEGDPESAVTELQCIWHNLSYMKCSWLPGRNTSPDTNYTLYYWHRSLEKIHQCENIFREGQYFGCSFDLTKVKDSSFEQHSVQIMVKDNAGKIKPSFNIVPLTSRVKPDPPHIKNLSFHNDDLYVQWENPQNFISRCLFYEVEVNNSQTETHNVFYVQEAKCENPEFERNVENTSCFMVPGVLPDTLNTVRIRVKTNKLCYEDDKLWSNWSQEMSIGKKRNSTG[human IgG1 Fc omitted]
B2: IL-4/13 fusion polypeptide variant 2595 (Fc fusion)
chain: B1 chain with S19I, Q44L, S45L, F129Y
B3: IL-4/13 fusion polypeptide variant 2596 (Fc fusion)
chain: B1 chain with Q44L, S45L, A82I, F129Y
B4: IL-4/13 fusion polypeptide variant 2597 (Fc fusion)
chain: B1 chain with Q44L, S45L, F129Y, A176I
B5: IL-4/13 fusion polypeptide variant 2598 (Fc fusion)
chain: B1 chain with Q44L, S45L, F129Y, A180I
B6: IL-4/13 fusion polypeptide variant 2599 (Fc fusion)
chain: B1 chain with Q44L, S45L, F129Y, A182I
B7: IL-4/13 fusion polypeptide variant 2600 (Fc fusion)
chain: B1 chain with Q44L, S45L, F129Y, A180I, A182I
B8: IL-4/13 fusion polypeptide variant 2675 (Fc fusion)
chain: B1 chain with L37K, Q44L, S45L, F129Y
B9: IL-4/13 fusion polypeptide variant 2676 (Fc fusion)
chain: B1 chain with L37Q, Q44L, S45L, F129Y
B10: IL-4/13 fusion polypeptide variant 2677 (Fc fusion)
chain: B1 chain with L37Y, Q44L, S45L, F129Y
B11: IL-4/13 fusion polypeptide variant 2561 (Fc fusion)
chain: B1 chain with Q44L, S45L, F129K
B12: IL-4/13 fusion polypeptide variant 2707 (Fc fusion)
chain: B1 chain with L41K, Q44L, S45L, F129Y
B13: IL-4/13 fusion polypeptide variant 2708 (Fc fusion)
chain: B1 chain with L41Y, Q44L, S45L, F129Y
B14: IL-4/13 fusion polypeptide variant 2683 (Fc fusion)
chain: B1 chain with Q44Y, S45N, S184A
B15: IL-4/13 fusion polypeptide variant 2681 (Fc fusion)
chain: B1 chain with Q44Y, S45N, D148Y, F149S
notes: L67Y, L68N, Y152F, D171Y, F172S from parent 1132; also called construct 2681
B16: IL-4/13 fusion polypeptide variant 2643 (Fc fusion)
chain: B1 chain with Q44L, S45L, E47G, F129Y
B17: IL-4/13 fusion polypeptide variant 2644 (Fc fusion)
chain: B1 chain with Q44L, S45L, E96T, F129Y
B18: IL-4/13 fusion polypeptide variant 2646 (Fc fusion)
chain: B1 chain with Q44L, S45L, F129Y, S166H, T167D, L168A, K169W
B19: IL-4/13 fusion polypeptide variant 2547 (Fc fusion)
chain: B1 chain with F129Y
B20: IL-4/13 fusion polypeptide variant 2558 (Fc fusion)
chain: B1 chain with Q44L, S45L, F129Y, D148Y, F149S, Y152H, R175S
B21: IL-4/13 fusion polypeptide variant 2560 (Fc fusion)
chain: B1 chain with Q44L, S45L
B22: IL-4/13 fusion polypeptide variant 2586 (Fc fusion)
chain: B1 chain with Q44L, S45L, D148Y, F149S, Y152H
B23: IL-4/13 fusion polypeptide variant 2602 (Fc fusion)
chain: B1 chain with Q44Y, S45N, F129Y
B24: IL-4/13 fusion polypeptide variant 2647 (Fc fusion)
chain: B1 chain with Q44L, S45L, F129Y, D148Y, F149S
B25: IL-4/13 fusion polypeptide variant 2651 (Fc fusion)
chain: B1 chain with Q44Y, S45N

The binders below were run against T2, human IL-13 (human, UniProt P35225 partial chain, limits assumed) (assay: cell-based or functional assay).

First: B1
Second: B2
The “IL-13 Inhibition (fold vs parent 1132 IC50, TF1 bioassay, CHO supernatant)” value of the first is higher: 0.77 fold for the first, 0.15 fold for the second.

Compared with B3, B4 is lower in “IL-13 Inhibition (fold vs parent 1132 IC50, TF1 bioassay, CHO supernatant)” value: 0.44 fold for the first, 0.27 fold for the second.

First: B5
Second: B6
The “IL-13 Inhibition (fold vs parent 1132 IC50, TF1 bioassay, CHO supernatant)” value of the first is lower: 0.1 fold for the first, 0.16 fold for the second.

Compared with B7, B8 is higher in “IL-13 Inhibition (fold vs parent 1132 IC50, TF1 bioassay, CHO supernatant)” value: 0.06 fold for the first, 0.46 fold for the second.

Going from B9 to B10, the “IL-13 Inhibition (fold vs parent 1132 IC50, TF1 bioassay, CHO supernatant)” value rises from 0.23 fold to 0.43 fold.

B11 was tested, and the “IL-13 Inhibition (fold vs parent 1132 IC50, TF1 bioassay, CHO supernatant)” value was 0.15 fold.

What follows are binders tested against T1, human IL-4 (assay: cell-based or functional assay).

First: B1
Second: B2
The “IL-4 Inhibition (fold vs parent 1132 IC50, TF1 bioassay, CHO supernatant)” value of the first is higher: 0.31 fold for the first, 0.15 fold for the second.

First: B3
Second: B4
The “IL-4 Inhibition (fold vs parent 1132 IC50, TF1 bioassay, CHO supernatant)” value of the first is higher: 1.12 fold for the first, 0.27 fold for the second.

Compared with B5, B6 is higher in “IL-4 Inhibition (fold vs parent 1132 IC50, TF1 bioassay, CHO supernatant)” value: 0.22 fold for the first, 0.33 fold for the second.

Compared with B7, B12 is lower in “IL-4 Inhibition (fold vs parent 1132 IC50, TF1 bioassay, CHO supernatant)” value: 0.68 fold for the first, 0.04 fold for the second.

Compared with B13, B11 is higher in “IL-4 Inhibition (fold vs parent 1132 IC50, TF1 bioassay, CHO supernatant)” value: 0.04 fold for the first, 0.16 fold for the second.

Target: T2, human IL-13
Experiment: cell-based or functional assay
Remark: another data set of the same source

T2 sequence (P35225 35-146 limits assumed): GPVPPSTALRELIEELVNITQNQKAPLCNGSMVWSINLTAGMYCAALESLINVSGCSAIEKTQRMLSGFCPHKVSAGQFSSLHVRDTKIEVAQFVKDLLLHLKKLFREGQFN

B14 was tested, and the “IL-13 Inhibition (fold vs parent 1132 IC50, TF1 bioassay, CHO supernatant)” value was 1.03 fold.

Target: T1, human IL-4
Experiment: cell-based or functional assay
Remark: another data set of the same source

For B14, the “IL-4 Inhibition (fold vs parent 1132 IC50, TF1 bioassay, CHO supernatant)” value was 2.06 fold.

Target: T2, human IL-13
Experiment: cell-based or functional assay
Remark: another data set of the same source

With B1 the “IL-13 Inhibition (fold vs parent 1132 IC50, TF1 bioassay, CHO supernatant)” value was 0.77 fold.

Target: T1, human IL-4
Experiment: cell-based or functional assay
Remark: another data set of the same source

In the case of B1, the “IL-4 Inhibition (fold vs parent 1132 IC50, TF1 bioassay, CHO supernatant)” value is reported as 0.31 fold.

Target: T2, human IL-13
Experiment: cell-based or functional assay
Remark: another data set of the same source

B15 was tested, and the “IL-13 IC50 (pM), TF1 bioassay” value was 9 pM.

Target: T2, human IL-13
Experiment: cell-based or functional assay
Remark: another data set of the same source

Compared with B16, B17 is lower in “IL-13 Inhibition (fold vs parent 1132 IC50, TF1 bioassay, CHO supernatant)” value: 0.27 fold for the first, 0.21 fold for the second.

In the case of B18, the “IL-13 Inhibition (fold vs parent 1132 IC50, TF1 bioassay, CHO supernatant)” value is reported as 0.05 fold.

Target: T1, human IL-4
Experiment: cell-based or functional assay
Remark: another data set of the same source

First: B16
Second: B17
The “IL-4 Inhibition (fold vs parent 1132 IC50, TF1 bioassay, CHO supernatant)” value of the first is lower: < 0.1 fold for the first, 0.36 fold for the second.

With B18 the “IL-4 Inhibition (fold vs parent 1132 IC50, TF1 bioassay, CHO supernatant)” value was < 0.1 fold.

What follows are binders tested against T2, human IL-13 (assay: BIAcore, fusion captured by anti-human Fc, cytokine injected).

Compared with B19, B20 is 1.7-fold lower in Kd: 2.73 pM for the first, 1.63 pM for the second.

B21 and B22 are within 1.5-fold of each other in Kd: 2.09 pM for the first, 2.17 pM for the second.

First: B23
Second: B24
The Kd of the first is 1.7-fold lower: 3.01 pM for the first, 5.09 pM for the second.

B25 and B15 are within 1.5-fold of each other in Kd: 4.26 pM for the first, 4.96 pM for the second.
